The results in this text go back to the supplement of paper PMC11417369.

Some of the results follow.

This assay relates to PfSIP2 AP2 domain 1 (GST-tagged). Put plainly: gcPBM binding intensity (ln(normalized median fluorescence intensity)); higher = stronger DNA binding. Put shortly:
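DNA-binding domains from P. falciparum, fused to GST and produced in E. coli, were put on an Agilent 4 × 180k double-stranded probe array for 1 h in 1× PBS holding 1% milk, 0.2 mg/ml BSA, 0.5% salmon testes DNA and 0.03% Triton X-100. Probes were primer-extended, 36 bp long and drawn from intergenic genomic regions, with negative controls included. After Alexa488 anti-GST antibody detection and a 488 nm scan, binding intensity was set as the highest Masliner-normalised natural-log median intensity across replicate spots of either probe orientation.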
For the sequence “TACATATAAATATATAAATATAAATAAATAAATAAA [XGTACX_negctrl_site180]”, the “gcPBM binding intensity (ln)” value came out at 6.93.

Turning to “TTTTTTTTTTTTTTTGCACACACATTGAATTATTAT [CACACA_site198]”, the “gcPBM binding intensity (ln)” value came out at 7.41.

In the case of “AAATGGAAAAGGTGTACACAAAAAAAAGGGAAAAGC [CACACA_site5331]”, the “gcPBM binding intensity (ln)” value was 7.83.

As for “TTACCAAAAACCTCAAGTACAAAAAATCCCTAATAT [XGTACX_site2313]”, the “gcPBM binding intensity (ln)” value was found to be 6.95.

“CTTTATATATAGTGTACACATTAAACAAATCTCAAT [CACACA_site5845]”: the “gcPBM binding intensity (ln)” value was found to be 7.42.

“ATAGTATACAGACACACACACACACGGATATAAATA [CACACA_site6914]”: the “gcPBM binding intensity (ln)” value is 7.17.

With “ATATATATATATATATGTACTAAATATTCATCCTTA [XGTACX_site6039]”, the “gcPBM binding intensity (ln)” value was found to be 9.48.

Take “AAGTTTAAGAAATAATTCATATTTACTTCCATCCTC [GTGCAC_negctrl_site494]”: the “gcPBM binding intensity (ln)” value was found to be 6.67.

Take “ATACGAAAATATTTTGCACACTATAATTATTCATAT [CACACA_site1765]”: the “gcPBM binding intensity (ln)” value worked out at 7.46.

Turning to “TTTCCCTACCAAAAGTGTACTTATACATATTTTTAT [XGTACX_site5495]”, the “gcPBM binding intensity (ln)” value was 7.38.

Regarding AAAAAAAAAAAAAAAGTGCATTAATAAATTTTAATA, the “gcPBM binding intensity (ln)” value was determined as 9.57.

For “ACATCTATGTATAATACACACACTAATATATAATTG [CACACA_site5134]”, the “gcPBM binding intensity (ln)” value worked out at 6.94.

For the sequence “ACATATTATTCTTCTTGTACACATAAATTTTATAAA [XGTACX_site299]”, the “gcPBM binding intensity (ln)” value worked out at 7.51.

As to “TTTTTTTCATAATATACACACAAAAAAAAAAAAAAA [CACACA_site3224]”, the “gcPBM binding intensity (ln)” value was found to be 7.09.

Take “TATACTCATATATAAACACACAAAAAAAAAAAAAAA [CACACA_site5165]”: the “gcPBM binding intensity (ln)” value is 7.

Take “ATATATATATATATGTGTACATATATATATCATATG [XGTACX_site3126]”: the “gcPBM binding intensity (ln)” value was 9.35.

Regarding “TCTTATAATTTACCTACACACAGGAAATATATAAAT [CACACA_site294]”, the “gcPBM binding intensity (ln)” value is 7.

“TCAGAAATATTACAAAGTACATGCAACGAAAATTTC [XGTACX_site5061]”: the “gcPBM binding intensity (ln)” value was determined as 6.83.

As to “ACACAATGTAGTGTATAAATACAATAAAAGGTTGTA [TGCATGCA_negctrl_site251]”, the “gcPBM binding intensity (ln)” value turned out to be 6.7.

Take “TGATATTTAAATTTTGCACACGCATATGAAATTAGG [CACACA_site1034]”: the “gcPBM binding intensity (ln)” value was 7.37.

“ATGACGTAGTGGTGTACACACATGGTACCTTTATTC [CACACA_site1547]”: the “gcPBM binding intensity (ln)” value turned out to be 7.21.

For the sequence “AAAAAAATATTCAAAGCATGCCTATTTACACATATT [TGCATGCA_site806]”, the “gcPBM binding intensity (ln)” value was found to be 6.83.

In the case of “TCTATTATCCTTTGCACACAAAATAAATGAAAAAAT [CACACA_site3029]”, the “gcPBM binding intensity (ln)” value is 7.83.

For the sequence “ATATAAGTTTTTTCTCAAAAAGTATAACGAGCATGA [CACACA_negctrl_site1375]”, the “gcPBM binding intensity (ln)” value came to 7.21.

For “TTTGATAAATGATACACACACAATATTTATAAAATA [CACACA_site7040]”, the “gcPBM binding intensity (ln)” value was 6.92.

Consider “ACATTATATAAATATATACATATATATATATATAAA [GTGCAC_negctrl_site115]”, for which the “gcPBM binding intensity (ln)” value was determined as 7.3.

As for “CCCACGTATATTTTGTGTACATAAATAAATAAATAA [XGTACX_site4046]”, the “gcPBM binding intensity (ln)” value was found to be 7.43.

For the sequence “TGTCATGATACATACACACACATACACATACACATA [CACACA_site2135]”, the “gcPBM binding intensity (ln)” value was 7.23.

With “AAACAACAAAAATGATATATATAAAATTTATAATAT [XGTACX_negctrl_site185]”, the “gcPBM binding intensity (ln)” value stood at 6.93.

In the case of “TATTTAATTATATAAAATTAAATTTTTAATTCTTCC [CACACA_negctrl_site473]”, the “gcPBM binding intensity (ln)” value was 6.49.

“ATGCATAAAAGAAATACACACATAAATATATAAATA [CACACA_site2163]”: the “gcPBM binding intensity (ln)” value turned out to be 7.02.

Consider “TATGGATTACACAATTGTACAAGAAAAATGTAAATA [XGTACX_site4040]”, for which the “gcPBM binding intensity (ln)” value came to 7.13.

Turning to “TATTTATTTATTTTGTTATAATTAAAATGGATACAT [XGTACX_negctrl_site387]”, the “gcPBM binding intensity (ln)” value amounted to 7.03.

“AGTAGTCTGGAGAAGAGTACATAGTATCTGGTAGCT [XGTACX_site2017]”: the “gcPBM binding intensity (ln)” value worked out at 6.85.

Turning to “CTACACACTTATAAATGTACAGGATTTAAGTATATG [XGTACX_site8245]”, the “gcPBM binding intensity (ln)” value was 6.98.

As for “AAATATAATAATACATTGCACATATATTATATATAT [TGCATGCA_negctrl_site611]”, the “gcPBM binding intensity (ln)” value is 7.64.

Take “TGTAATAATCTTCATTTCTTTTTTTTTTTTTTTTGT [CACACA_negctrl_site1388]”: the “gcPBM binding intensity (ln)” value was determined as 6.71.

Consider “TAACTTAATAAAAAAAGTACATATATTTTTAATAAA [XGTACX_site2707]”, for which the “gcPBM binding intensity (ln)” value amounted to 6.98.

For the sequence “AGTGAATATTACGAAACACACAAAAAAATACATTTC [CACACA_site511]”, the “gcPBM binding intensity (ln)” value is 6.76.

Turning to GTTTATATGTTCATAGTGCATATATGTTGATTTATT, the “gcPBM binding intensity (ln)” value was 8.15.

Take “TTTTTTTTTTTTTACTGTACTTAATAAGATTGAATA [XGTACX_site2384]”: the “gcPBM binding intensity (ln)” value was found to be 7.24.

In the case of “TATAAAAAAAAAAAAAAAAAAAAAAAAAAAAAAAAA [TGCATGCA_negctrl_site42]”, the “gcPBM binding intensity (ln)” value amounted to 7.03.

Consider “AAATTATAAAAATGTAGTACAGACAATATATTCGTA [XGTACX_site8307]”, for which the “gcPBM binding intensity (ln)” value amounted to 7.34.

In the case of “ATAAATATTATTTTACGTACATATTTATGAAGTATT [XGTACX_site8746]”, the “gcPBM binding intensity (ln)” value came to 7.47.

On to “CAGGAGAGAAAATATCGTACAAGCAAAAATAAGTGG [XGTACX_site8557]”, for which the “gcPBM binding intensity (ln)” value turned out to be 7.46.

Regarding “TATTATTTTAAGATTGTTTATGTAAAGAATTATGAA [CACACA_negctrl_site445]”, the “gcPBM binding intensity (ln)” value stood at 6.89.

As to TGTGTATATATGCTGGTGCAACTTTAAAAAATAATC, the “gcPBM binding intensity (ln)” value was 10.1.

Take AAATTATATACCACAGTGCAAAAGGCAGGTATACGT: the “gcPBM binding intensity (ln)” value was determined as 7.67.

As for “GTAGAGAAAAAAATGTGGACACAAAAAATAAAAAGG [XGTACX_site4058]”, the “gcPBM binding intensity (ln)” value was found to be 7.57.

For “TTTTTTTTTTTTTGCACACACATATATAAATATATA [CACACA_site3949]”, the “gcPBM binding intensity (ln)” value came out at 7.17.

As to “TATATTGCAAAAAGTACACACATAAATAAATACATA [CACACA_site6589]”, the “gcPBM binding intensity (ln)” value amounted to 7.23.

With “TATTCTAGAATTTTAACACACAAGAATATAAACTTT [CACACA_site6757]”, the “gcPBM binding intensity (ln)” value came out at 6.73.

As to “ATTTTTAAATACAGTACACACATGGGTTTAAATTAT [CACACA_site2884]”, the “gcPBM binding intensity (ln)” value amounted to 7.

With “GGTTATATGATAGGATGTACAATTAAAAGTAAATAT [XGTACX_site5083]”, the “gcPBM binding intensity (ln)” value was found to be 7.25.

Take “TCCTATAAACAAATTTGTACATATAAGAATATATTC [XGTACX_site3892]”: the “gcPBM binding intensity (ln)” value was determined as 7.08.

Take “TTATTATTCTTAAGGATATAACAAAAAAGAAAAATT [CACACA_negctrl_site1402]”: the “gcPBM binding intensity (ln)” value was found to be 6.87.

For “TATTTATATTTATATACACACATATATACCTATATA [CACACA_site7820]”, the “gcPBM binding intensity (ln)” value came out at 6.95.
